This note sets out measurements from the RNAGym collection of RNA variant scans (doi:10.7554/elife.90254).

Read counts are not given, so values of variants with three or more changes are uncertain.

B1: LINE1-mini (parent)
chain: GGCAGAGCUCAACACAGCGUGGCAAAGUGGCUGUGGCUAGACUGCC

The variants in the data set derive from B1. As to the kind of experiment: self-cleavage, relative activity (ratio to wild type); higher = more cleavage; in vitro, sequencing; the parent is a self-cleaving ribozyme.
On to UGCAGAGCACAACACAGCGUGGCAAAGUGGCUGUGGCUAGAAUGCC [G1U U9A C42A], for which the self-cleavage amounted to 0.02.

As to GACCGAGCUCAACACAGCGUGGCAUAGUGGCUGUGGCUAGACCGCC [G2A A4C A25U U43C], the self-cleavage is 0.44.

GACAGGGCUCAACAGAGCGUGGCAAAGUGGCUUUGCCUAGACUGCC [G2A A6G C15G G33U G36C]: the self-cleavage is 0.01.

Regarding UGCAGAGCACUACACAGCGGGGCAAAAUGGCUGUGGCUAGACUGCC [G1U U9A A11U U20G G27A], the self-cleavage stood at 0.01.

As to UGCAGAGCUCAACACAGCGUGGCAAAGAGGCUGUGGCUAGACUGUC [G1U U28A C45U], the self-cleavage was 1.13.

UGCAGAGCUCAACACAGCGUGGCAAAGAGGCUGAGGCUAGACUGCC [G1U U28A U34A]: the self-cleavage worked out at 0.07.

With UGCAGAGCACAACGCAGCGUGGCAAAGUGGCUGUGGCUACACGGCC [G1U U9A A14G G40C U43G], the self-cleavage came out at 0.19.

With UGCAGAGCAAAACACAGCGUGGCAAAGUGGCUGGGGCUAGACUGCC [G1U U9A C10A U34G], the self-cleavage amounted to 0.01.

Regarding UGCAGAGCGCAACACAGCGUGGCAAAGUGGCUGUGGCUAGACUGGU [G1U U9G C45G C46U], the self-cleavage was 0.01.

With UGCAGAGCUCAACACAGCGUGGCAAAGCAGCUGUGGCUAGACUGCC [G1U U28C G29A], the self-cleavage was found to be 0.03.

In the case of GACAGAGCUCACCACAGCGUGGCAAAGUGGCUUUGGCUAGACUGCC [G2A A12C G33U], the self-cleavage stood at 0.02.

As to GACAGUGAUCAACACAGCGUGGCAAAGUGGCUGAGGCUAGACUGCC [G2A A6U C8A U34A], the self-cleavage turned out to be 0.41.

With UGCAGAGCUCAACACAGCGGGGCAAAGUGGUGGUGGCUAGACUGCC [G1U U20G C31U U32G], the self-cleavage turned out to be 0.02.

Take UGCAGAGCUCAACACAGCGUGGCAAAGCGGCUGUGGCUACACUGCC [G1U U28C G40C]: the self-cleavage was found to be 0.02.

With GACCGAGCUCAACACAGCGUGGCAAAGUGGCUGUGGCUUGACUGCC [G2A A4C A39U], the self-cleavage is 2.24.

Consider GACAGCGCUAAACACAGCUUGGCAAAGUGCCUGUGGCUAGACUGCC [G2A A6C C10A G19U G30C], for which the self-cleavage is 0.01.

For the variant GACAGAGCUCAUUACAGCGUGGCAAAGUGGUUGAGGCUAGGCUGCC [G2A A12U C13U C31U U34A A41G], the self-cleavage turned out to be 0.11.

As to GACAGAGCUCGACACAGCGUGGCAAAGUGGCUCUGGCUAGACUGCC [G2A A11G G33C], the self-cleavage came out at 0.02.

GACAGAGCUCAACGCAGGGUGGCAAAGUGGGUGUGGCUAGACUGCC [G2A A14G C18G C31G]: the self-cleavage is 0.05.

On to GACAGAGCUCGACACAGCGUGGCAAAGUGGUUGUGGCUAGACUGUC [G2A A11G C31U C45U], for which the self-cleavage worked out at 0.02.

On to GACAGAGCUCAGCACAGCGUGGCAAAGUGGCUGUGCCUAGACUGCC [G2A A12G G36C], for which the self-cleavage was found to be 0.08.

As to GACAGAGCUCAACGCAGCGUGGCAAAGAGGCUGUGGCUAGACAUCC [G2A A14G U28A U43A G44U], the self-cleavage worked out at 0.08.

Turning to UGCAGAGCUCAACACAGCGUGGCAAAGUGGCUGUGGCCAGGCUGCC [G1U U38C A41G], the self-cleavage turned out to be 0.07.

Regarding GACAGAGCUCCGCACAGCGUGGCAAAGUGGCUGUGGCUAGCCUGCC [G2A A11C A12G A41C], the self-cleavage amounted to 0.

Consider GACAGAGCUCAACACGGCGUGGCAAAUUGGCUGUGGGUAGACUGCC [G2A A16G G27U C37G], for which the self-cleavage worked out at 0.38.

Turning to GACAGCGCUCAACACUGCGUGGCAAAGUGGCUGUGGCUAGACUUCC [G2A A6C A16U G44U], the self-cleavage was 0.24.

Take GACAGAGCUCAACACAGCGUGGCAUAGUGGCUGUGGCUAGACUGCU [G2A A25U C46U]: the self-cleavage came out at 1.11.

Take GACAGAGCUCAACACGGCGUGGCAAAGUGGCUGUGGCUGGACUGCC [G2A A16G A39G]: the self-cleavage came out at 0.16.

On to UGCAGAGCUCAACACAGCGCGGCCAAGUGGCUGUGGCUAGACUGCC [G1U U20C A24C], for which the self-cleavage is 0.44.

On to GACAGCGCUCAACAGAGCGUGUCAAAGUGGCUGAGGCUAGACUGCC [G2A A6C C15G G22U U34A], for which the self-cleavage turned out to be 0.01.

Consider UGCAGAGCCCAACACAGCGUCUCAAAGUGGCUGUGGCUAGACUGCC [G1U U9C G21C G22U], for which the self-cleavage amounted to 0.

On to UGCAGAGCUCAACACAGCGUGGCAAAGUGGCUGUUUCUAGACUGCC [G1U G35U G36U], for which the self-cleavage is 0.09.

Take UGCAGAGCUCAACACAGCGGGGCAAAAUGGCUGUGACUAGACUGCC [G1U U20G G27A G36A]: the self-cleavage came out at 0.09.

Turning to UGCAGAGCCCAACACAGCGUGGCAAAGUGGCUGUGGCUAGACUCCA [G1U U9C G44C C46A], the self-cleavage was determined as 0.

Regarding GACUGAGCUCAACACAGCGUGGCAAAGUUGCUGUGGCUAGUCUGGC [G2A A4U G29U A41U C45G], the self-cleavage was determined as 0.07.

Consider GAAAGAGCUCAACACCGCGUGGCACAGUUGCUGUGCGUAGACUGCC [G2A C3A A16C A25C G29U G36C C37G], for which the self-cleavage was found to be 0.37.

On to GACAGAGCUCGGCACUGCGUGGCAAAGUGGCUGUGGCUAGACUGCU [G2A A11G A12G A16U C46U], for which the self-cleavage amounted to 0.01.

Regarding GACGGAGCUCAACACAGCGUGGGCAUAUGGCUGUGGCUAGACUGCC [G2A A4G C23G A24C A26U G27A], the self-cleavage stood at 0.01.

In the case of UGCAGAGCUCAACACAGCGUGGCAAAGUGGCCGUGGCUAGACUGCA [G1U U32C C46A], the self-cleavage came out at 0.07.

Turning to UGCAGAGCUCAACACAGCGUGGCAAAGUGGCUGUGGCUACACGGCC [G1U G40C U43G], the self-cleavage was determined as 0.05.

Turning to GACAGAGCUCAACGCAGAGUGGCAAAGUGGCUGUGGCUAGACUGCC [G2A A14G C18A], the self-cleavage stood at 0.37.

Regarding GACAGAGCUCAACACAGCGUGGCAUAUUGGCUGUGGCUAGACCGCC [G2A A25U G27U U43C], the self-cleavage was 0.05.

GACAGAGCUCAACUCAGCGUGGCAAGGUGACUGUGGCUAGACUGCC [G2A A14U A26G G30A]: the self-cleavage was 0.36.

For GACAGAGCUCUACACAGCAUGGCAAAAUGGCUGUGGCUAGACUGAC [G2A A11U G19A G27A C45A], the self-cleavage turned out to be 0.09.

UGCAGAGCGCAACACAGCGCGGUAAAGUGUCAGUGGCUAGACUGCC [G1U U9G U20C C23U G30U U32A]: the self-cleavage worked out at 0.02.

Take GACAGAGCUCAGCAAAGCGUGGCAAAGUGGCUGUGGCUAGACUGCC [G2A A12G C15A]: the self-cleavage came to 0.08.

With GACAGAGCUCAACACGCCGUAGCAAAGUGCCUGUGGCUAUACUGCC [G2A A16G G17C G21A G30C G40U], the self-cleavage was 0.08.

Turning to GACAGAGCUCAACUAAGCUUGGCAAAGUGGCUGUGGCUAGACUACC [G2A A14U C15A G19U G44A], the self-cleavage was 0.12.

As for GACAGAGCUCAACACGGCGUGGCAAAGUGGCUGUGGCUAGAAUGCC [G2A A16G C42A], the self-cleavage turned out to be 0.07.

On to GACAGAGCUCAACUCAGCGUGGCAAAGUGGUCGUGGCUAGACAGCC [G2A A14U C31U U32C U43A], for which the self-cleavage was found to be 0.17.

Regarding GACUGAGCUCAACUCAGCGUGGCAAUGUGGCUGUGACCAAACUGUC [G2A A4U A14U A26U G36A U38C G40A C45U], the self-cleavage came out at 0.06.

With GACAGAGCUCUACACGGCGUGGCAAAGUGGCUGUGGCUAGACUGCC [G2A A11U A16G], the self-cleavage turned out to be 0.04.

On to GACAGAGCUCGCUACAACGUGGCAAAGUGGGUGUGGCUAGACUGCC [G2A A11G A12C C13U G17A C31G], for which the self-cleavage was determined as 0.04.

GACAGUGCUCAACACAGCGUGGCAAAGUGGCUGUGGCUAGACCGCC [G2A A6U U43C]: the self-cleavage was 0.23.

For the variant GACAGAGCUCAACGCAGCGUGACAAGGUGGCUGUGGCUAGACCGCC [G2A A14G G22A A26G U43C], the self-cleavage is 0.09.

As for GACAGAGCUCAUCACAGCGUGGCAAAGUGGCUAUGGCCAGACUGCC [G2A A12U G33A U38C], the self-cleavage was determined as 0.05.
